# Source: the supplement of paper PMC8728848
# The other results are listed elsewhere or left out.
# How the values were obtained:
# Assay in all cases: glycan array binding signal (z-score within array); higher = stronger binding
# Conditions in all cases: glycan notation: IUPAC condensed, linker removed
# [1] = molecular target: Fuc(a1-2)Gal(b1-4)Glc6S
# Method in brief: (§1)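 Arrays were curated from the Consortium for Functional Glycomics database, 3228 in total, and kept only where the protein sequence was available. Binding is expressed as a within-array Z-score. This score was averaged across arrays of the same protein sequence at different concentrations or buffers and across linkers, and negative values can be read as non-binding.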
# [2] = molecular target: Fuc(a1-2)Gal(b1-4)GlcNAc
# Method in brief: as §1
# [3] = molecular target: Fuc(a1-2)Gal(b1-4)GlcNAc(b1-2)Man
# Method in brief: as §1
# [4] = molecular target: Fuc(a1-2)Gal(b1-4)GlcNAc(b1-2)Man(a1-3)[Fuc(a1-2)Gal(b1-4)GlcNAc(b1-2)Man(a1-6)]Man(b1-4)GlcNAc(b1-4)GlcNAc
# Method in brief: as §1
# [5] = molecular target: Fuc(a1-2)Gal(b1-4)GlcNAc(b1-2)Man(a1-3)[Fuc(a1-2)Gal(b1-4)GlcNAc(b1-2)Man(a1-6)]Man(b1-4)GlcNAc(b1-4)[Fuc(a1-6)]GlcNAc
# Method in brief: as §1
# [6] = molecular target: Fuc(a1-2)Gal(b1-4)GlcNAc(b1-2)[Fuc(a1-2)Gal(b1-4)GlcNAc(b1-4)]Man(a1-3)[Fuc(a1-2)Gal(b1-4)GlcNAc(b1-2)Man(a1-6)]Man(b1-4)GlcNAc(b1-4)GlcNAc
# Method in brief: as §1
# [7] = molecular target: Fuc(a1-2)Gal(b1-4)GlcNAc(b1-3)Gal(b1-4)GlcNAc
# Method in brief: as §1
# [8] = molecular target: Fuc(a1-2)Gal(b1-4)GlcNAc(b1-3)Gal(b1-4)GlcNAc(b1-2)Man(a1-3)[Fuc(a1-2)Gal(b1-4)GlcNAc(b1-3)Gal(b1-4)GlcNAc(b1-2)Man(a1-6)]Man(b1-4)GlcNAc(b1-4)GlcNAc
# Method in brief: as §1
# [9] = molecular target: Fuc(a1-2)Gal(b1-4)GlcNAc(b1-3)Gal(b1-4)GlcNAc(b1-3)Gal(b1-4)GlcNAc
# Method in brief: as §1
# [10] = molecular target: Fuc(a1-2)Gal(b1-4)GlcNAc(b1-3)GalNAc
# Method in brief: as §1
# [11] = molecular target: Fuc(a1-2)Gal(b1-4)GlcNAc(b1-3)[Fuc(a1-2)Gal(b1-4)GlcNAc(b1-6)]GalNAc
# Method in brief: as §1
# [12] = molecular target: Fuc(a1-2)Gal(b1-4)GlcNAc(b1-3)[Fuc(a1-3)[Gal(b1-4)]GlcNAc(b1-6)]Gal(b1-4)Glc
# Method in brief: as §1
# [13] = molecular target: Fuc(a1-2)Gal(b1-4)GlcNAc(b1-6)GalNAc
# Method in brief: as §1
# [14] = molecular target: Fuc(a1-2)Gal(b1-4)GlcNAc6S
# Method in brief: as §1
# [15] = molecular target: Fuc(a1-2)Gal(b1-4)[Fuc(a1-3)]GlcNAc
# Method in brief: as §1
# [16] = molecular target: Fuc(a1-2)Gal(b1-4)[Fuc(a1-3)]GlcNAc(b1-2)Man(a1-3)[Fuc(a1-2)Gal(b1-4)[Fuc(a1-3)]GlcNAc(b1-2)Man(a1-6)]Man(b1-4)GlcNAc(b1-4)[Fuc(a1-6)]GlcNAc
# Method in brief: as §1
# [17] = molecular target: Fuc(a1-2)Gal(b1-4)[Fuc(a1-3)]GlcNAc(b1-2)[Fuc(a1-2)Gal(b1-4)[Fuc(a1-3)]GlcNAc(b1-4)]Man(a1-3)[Fuc(a1-2)Gal(b1-4)[Fuc(a1-3)]GlcNAc(b1-2)Man(a1-6)]Man(b1-4)GlcNAc(b1-4)GlcNAc
# Method in brief: as §1
# [18] = molecular target: Fuc(a1-2)Gal(b1-4)[Fuc(a1-3)]GlcNAc(b1-3)Gal(b1-4)[Fuc(a1-3)]GlcNAc
# Method in brief: as §1
# [19] = molecular target: Fuc(a1-2)Gal(b1-4)[Fuc(a1-3)]GlcNAc(b1-3)Gal(b1-4)[Fuc(a1-3)]GlcNAc(b1-3)Gal(b1-4)[Fuc(a1-3)]GlcNAc
# Method in brief: as §1
# [20] = molecular target: Fuc(a1-2)Gal(b1-4)[Fuc(a1-3)]GlcNAc(b1-3)GalNAc
# Method in brief: as §1
# [21] = molecular target: Fuc(a1-2)Gal(b1-4)[Fuc(a1-3)]GlcNAc(b1-3)[Neu5Ac(a2-6)Gal(b1-4)GlcNAc(b1-6)]Gal(b1-4)Glc
# Method in brief: as §1
# [22] = molecular target: Fuc(a1-2)Gal3S(b1-4)GlcNAc
# Method in brief: as §1
# [23] = molecular target: Fuc(a1-2)Gal6S(b1-3)GlcNAc
# Method in brief: as §1
binder,measurement,setting,value
PX14343B-bfa-546-20-546 (Bacteroides fragilis) (protein) CDLERYPLTDLSEETFWNSESNAELALTSLYRGSLTDGVEYNPSDWWSYHGMIMMEHLSDNAFDRRGENNPFFKISSGNLTADNAFIKRYWETSYKRIGYCNRFLVGIQNSSESEKKTRMIAEARFLRATQYFYLASYFKNVPLVENVLTGEEANNVTKTSQADILKWCVTEFTAAAADLPRFSAIPAGEAGRACKQAALAFLGRTCMLQKDWKSGAKAFHDIMELGDNAINANYQELFYPSTGTSNKENIFYIQYLENYLGTGLPQHALSAKDGGWSLVNPAADLYESYEFKDGTPFSYDDPRYDPSNLGKDRDPRLDYTIYYNGAIFMGTEYKMSPDYSAAKKEKLDYTSEASRTGFMMRKYFEESTPINDVQSANGLTPVIRYAEVLLGYLECLVEDNQTITQGILDETINAVRGRASVNMPPVTEVTPAKLREIVRHERRIELAMEGIRYWDIMRWGIAHEVLSQKIWGAPYPGSTQYATTTKEVDPTGNYRWYVGKRAFRNPTDYTWPIPQSEQNINPNLRD,glycan array binding signal (z-score),[1],-0.118
same,glycan array binding signal (z-score),[2],-0.121
same,glycan array binding signal (z-score),[3],-0.127
same,glycan array binding signal (z-score),[4],-0.117
same,glycan array binding signal (z-score),[5],-0.108
same,glycan array binding signal (z-score),[6],-0.123
same,glycan array binding signal (z-score),[7],-0.123
same,glycan array binding signal (z-score),[8],-0.107
same,glycan array binding signal (z-score),[9],-0.121
same,glycan array binding signal (z-score),[10],-0.12
same,glycan array binding signal (z-score),[11],-0.124
same,glycan array binding signal (z-score),[12],-0.127
same,glycan array binding signal (z-score),[13],-0.128
same,glycan array binding signal (z-score),[14],-0.116
same,glycan array binding signal (z-score),[15],-0.124
same,glycan array binding signal (z-score),[16],-0.104
same,glycan array binding signal (z-score),[17],-0.106
same,glycan array binding signal (z-score),[18],-0.128
same,glycan array binding signal (z-score),[19],-0.12
same,glycan array binding signal (z-score),[20],-0.088
same,glycan array binding signal (z-score),[21],-0.121
same,glycan array binding signal (z-score),[22],4.47
same,glycan array binding signal (z-score),[23],2.42
